{"source": "PubChem BioAssay (NCI)", "assay_in_all_cases": "inhibition of tumour cell growth, NCI panel, 384-well format", "key": {"KM12 colon": {"test_system": "KM12 colon"}, "HS 578T breast": {"test_system": "HS 578T breast"}, "HCT-15 colon": {"test_system": "HCT-15 colon"}, "UACC-257 melanoma": {"test_system": "UACC-257 melanoma"}, "UO-31 renal": {"test_system": "UO-31 renal"}, "A498 renal": {"test_system": "A498 renal"}, "NCI-H460 NSCLC": {"test_system": "NCI-H460 NSCLC"}, "HCC-2998 colon": {"test_system": "HCC-2998 colon"}, "CCRF-CEM leukemia": {"test_system": "CCRF-CEM leukemia"}, "T-47D breast": {"test_system": "T-47D breast"}, "SK-MEL-5 melanoma": {"test_system": "SK-MEL-5 melanoma"}, "MCF7 breast": {"test_system": "MCF7 breast"}, "OVCAR-5 ovarian": {"test_system": "OVCAR-5 ovarian"}, "MDA-MB-435 melanoma": {"test_system": "MDA-MB-435 melanoma"}, "SF-539 CNS": {"test_system": "SF-539 CNS"}, "SW-620 colon": {"test_system": "SW-620 colon"}, "PC-3 prostate": {"test_system": "PC-3 prostate"}, "COLO 205 colon": {"test_system": "COLO 205 colon"}, "SK-OV-3 ovarian": {"test_system": "SK-OV-3 ovarian"}, "UACC-62 melanoma": {"test_system": "UACC-62 melanoma"}, "IGROV1 ovarian": {"test_system": "IGROV1 ovarian"}, "HOP-62 NSCLC": {"test_system": "HOP-62 NSCLC"}, "A549 NSCLC": {"test_system": "A549 NSCLC"}, "HT29 colon": {"test_system": "HT29 colon"}, "SF-268 CNS": {"test_system": "SF-268 CNS"}, "U251 glioblastoma": {"test_system": "U251 glioblastoma"}, "SN12C renal": {"test_system": "SN12C renal"}, "OVCAR-3 ovarian": {"test_system": "OVCAR-3 ovarian"}, "786-0 renal": {"test_system": "786-0 renal"}, "SNB-75 CNS": {"test_system": "SNB-75 CNS"}, "SNB-19 CNS": {"test_system": "SNB-19 CNS"}}, "note": "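GI50 marks 50% less growth.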 Certain results were filed several times, with different values. The list is limited to them. The source may hold further records. Results that share an entry are repeats across runs, samples, wells, individuals or studies. A tag in brackets gives the origin of a value. A, B and so on number the origins entry by entry.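 TGI marks complete inhibition of growth.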", "data": [{"smiles": "CCc1cc2c(cc1N1CCC(N3CCOCC3)CC1)C(C)(C)c1[nH]c3cc(C#N)ccc3c1C2=O", "values": [{"measurement": "GI50", "setting": "KM12 colon", "result": "1.99 µM [sample A, mean of 2 tests] and 136 nM [sample B, 1 test]"}, {"measurement": "GI50", "setting": "HS 578T breast", "result": "4.38 µM [sample A, mean of 2 tests] and 359 nM [sample B, 1 test]"}, {"measurement": "GI50", "setting": "HCT-15 colon", "result": "4.02 µM [sample A, mean of 2 tests] and 396 nM [sample B, 1 test]"}, {"measurement": "TGI", "setting": "UACC-257 melanoma", "result": "35.8 µM [sample A, 1 test] and 2.67 µM [sample B, 1 test]"}, {"measurement": "GI50", "setting": "UO-31 renal", "result": "11.5 µM [sample A, 1 test] and 376 nM [sample B, 1 test]"}, {"measurement": "TGI", "setting": "UO-31 renal", "result": "24.6 µM [sample A, 1 test] and 1.29 µM [sample B, 1 test]"}, {"measurement": "GI50", "setting": "A498 renal", "result": "5.41 µM [sample A, mean of 2 tests] and 293 nM [sample B, 1 test]"}, {"measurement": "TGI", "setting": "A498 renal", "result": "10.6 µM [sample A, mean of 2 tests] and 805 nM [sample B, 1 test]"}, {"measurement": "GI50", "setting": "NCI-H460 NSCLC", "result": "4.25 µM [sample A, mean of 2 tests] and 165 nM [sample B, 1 test]"}, {"measurement": "TGI", "setting": "NCI-H460 NSCLC", "result": "8.45 µM [sample A, mean of 2 tests] and 330 nM [sample B, 1 test]"}, {"measurement": "TGI", "setting": "HCC-2998 colon", "result": "37.8 µM [sample A, 1 test] and 2.1 µM [sample B, 1 test]"}, {"measurement": "TGI", "setting": "CCRF-CEM leukemia", "result": "33.6 µM [sample A, 1 test] and 2.57 µM [sample B, 1 test]"}, {"measurement": "GI50", "setting": "T-47D breast", "result": "6.56 µM [sample A, 1 test] and 396 nM [sample B, 1 test]"}, {"measurement": "TGI", "setting": "T-47D breast", "result": "19.7 µM [sample A, 1 test] and 1.66 µM [sample B, 1 test]"}, {"measurement": "GI50", "setting": "SK-MEL-5 melanoma", "result": "3.93 µM [sample A, mean of 2 tests] and 330 nM [sample B, 1 test]"}, {"measurement": "GI50", "setting": "MCF7 breast", "result": "3.99 µM [sample A, mean of 2 tests] and 387 nM [sample B, 1 test]"}, {"measurement": "TGI", "setting": "OVCAR-5 ovarian", "result": "> 71 µM [sample A, mean of 2 tests] and 7.01 µM [sample B, 1 test]"}, {"measurement": "TGI", "setting": "MDA-MB-435 melanoma", "result": "33.4 µM [sample A, 1 test] and 3.23 µM [sample B, 1 test]"}, {"measurement": "GI50", "setting": "SF-539 CNS", "result": "5.2 µM [sample A, mean of 2 tests] and 188 nM [sample B, 1 test]"}, {"measurement": "TGI", "setting": "SF-539 CNS", "result": "9.82 µM [sample A, mean of 2 tests] and 402 nM [sample B, 1 test]"}, {"measurement": "TGI", "setting": "SW-620 colon", "result": "> 60.1 µM [sample A, mean of 2 tests] and 3.13 µM [sample B, 1 test]"}, {"measurement": "TGI", "setting": "PC-3 prostate", "result": "31 µM [sample A, 1 test] and 2.41 µM [sample B, 1 test]"}, {"measurement": "TGI", "setting": "COLO 205 colon", "result": "56.4 µM [sample A, mean of 2 tests] and 2.51 µM [sample B, 1 test]"}, {"measurement": "TGI", "setting": "SK-OV-3 ovarian", "result": "23.9 µM [sample A, 1 test] and 2.38 µM [sample B, 1 test]"}, {"measurement": "TGI", "setting": "UACC-62 melanoma", "result": "30.9 µM [sample A, 1 test] and 2.04 µM [sample B, 1 test]"}, {"measurement": "TGI", "setting": "IGROV1 ovarian", "result": "> 52.9 µM [sample A, mean of 2 tests] and 2.35 µM [sample B, 1 test]"}, {"measurement": "GI50", "setting": "HOP-62 NSCLC", "result": "4 µM [sample A, mean of 2 tests] and 285 nM [sample B, 1 test]"}, {"measurement": "TGI", "setting": "HOP-62 NSCLC", "result": "8.25 µM [sample A, mean of 2 tests] and 804 nM [sample B, 1 test]"}, {"measurement": "GI50", "setting": "A549 NSCLC", "result": "3.83 µM [sample A, mean of 2 tests] and 155 nM [sample B, 1 test]"}, {"measurement": "TGI", "setting": "A549 NSCLC", "result": "8.3 µM [sample A, mean of 2 tests] and 468 nM [sample B, 1 test]"}, {"measurement": "TGI", "setting": "HT29 colon", "result": "31.3 µM [sample A, 1 test] and 2.81 µM [sample B, 1 test]"}, {"measurement": "GI50", "setting": "SF-268 CNS", "result": "18.1 µM [sample A, 1 test] and 209 nM [sample B, 1 test]"}, {"measurement": "TGI", "setting": "SF-268 CNS", "result": "34.4 µM [sample A, 1 test] and 557 nM [sample B, 1 test]"}, {"measurement": "TGI", "setting": "U251 glioblastoma", "result": "32.5 µM [sample A, 1 test] and 2.33 µM [sample B, 1 test]"}, {"measurement": "TGI", "setting": "SN12C renal", "result": "34.3 µM [sample A, 1 test] and 2.81 µM [sample B, 1 test]"}, {"measurement": "GI50", "setting": "OVCAR-3 ovarian", "result": "4.87 µM [sample A, mean of 2 tests] and 276 nM [sample B, 1 test]"}, {"measurement": "TGI", "setting": "OVCAR-3 ovarian", "result": "9.92 µM [sample A, mean of 2 tests] and 599 nM [sample B, 1 test]"}, {"measurement": "GI50", "setting": "786-0 renal", "result": "3.94 µM [sample A, mean of 2 tests] and 278 nM [sample B, 1 test]"}, {"measurement": "TGI", "setting": "786-0 renal", "result": "8.02 µM [sample A, mean of 2 tests] and 751 nM [sample B, 1 test]"}, {"measurement": "GI50", "setting": "SNB-75 CNS", "result": "5.45 µM [sample A, mean of 2 tests] and 341 nM [sample B, 1 test]"}, {"measurement": "TGI", "setting": "SNB-19 CNS", "result": "39.1 µM [sample A, 1 test] and 2.38 µM [sample B, 1 test]"}]}]}
